Data published in patent publication US11000038B2, “Pyridone compounds and agricultural and horticultural fungicides containing the same as active ingredients” (priority 2017, dated 2021).

Legend:
[1] = tested on: cabbage Alternaria sooty spot fungi (Alternaia brassicicola); test: Test Example C: cabbage Alternaria sooty spot, spray treatment of cabbage plants; format: in vivo; conditions: cabbage Alternaria sooty spot, spray treatment
Excerpt: [Test Example C] Cabbage Alternaria Sooty Spot
Test plants (cabbage variety: Shikidori) were cultivated until the cotyledons extended after the sowing of seeds.
<Control Value> Control value=100{1−(n/3)}

[2] = tested on: wheat brown rust fungi (Puccinia recondita); test: Test Example E: wheat brown rust, spray treatment of wheat plants; format: in vivo; conditions: wheat brown rust, spray treatment
[3] = tested on: barley powdery mildew fungi (Blumeria graminis f. sp. hordei); test: Test Example D: barley powdery mildew, spray treatment of barley plants; conditions: barley powdery mildew, spray treatment
[4] = tested on: gray mold fungi (Botrytis cinerea); test: Test Example B: tomato gray mold, spray treatment of tomato plants; conditions: tomato gray mold, spray treatment
[5] = tested on: grape downy mildew fungus (Plasmopara viticola); test: Test Example G: grape downy mildew, spray treatment of grape plants; conditions: grape downy mildew, 250 ppm spray, 7 to 10 days after inoculation

SMILES | Test C control value [1] | Test E control value [2] | Test D control value [3] | Test B control value [4] | Test G control value [5]
Cc1ccc(-c2c(Cl)c(=O)c(Br)cn2-c2ccccc2C)cc1 [Compound 409] | L (L shows the control value of 50% or less) | H (H shows the control value of more than 50%) | L (L shows the control value of 50% or less) | L (L shows the control value of 50% or less) | L (L shows the control value of 50% or less)
Cc1ccc(-c2c(Cl)c(=O)c(Cl)cn2-c2ccccc2C)cc1 [Compound 411] | L (L shows the control value of 50% or less) | H (H shows the control value of more than 50%) | L (L shows the control value of 50% or less) | L (L shows the control value of 50% or less) | L (L shows the control value of 50% or less)
Cc1c(F)cccc1-n1cc(Br)c(=O)c(C)c1-c1ccccc1 [Compound 412] | H (H shows the control value of more than 50%) | H (H shows the control value of more than 50%) | L (L shows the control value of 50% or less) | H (H shows the control value of more than 50%) | L (L shows the control value of 50% or less)
Cc1c(F)cccc1-n1cc(Br)c(=O)c(Cl)c1-c1ccccc1 [Compound 413] | L (L shows the control value of 50% or less) | H (H shows the control value of more than 50%) | L (L shows the control value of 50% or less) | H (H shows the control value of more than 50%) | L (L shows the control value of 50% or less)
Cc1c(-c2ccccc2)n(-c2cc(F)ccc2Cl)cc(Br)c1=O [Compound 415] | H (H shows the control value of more than 50%) | H (H shows the control value of more than 50%) | L (L shows the control value of 50% or less) | H (H shows the control value of more than 50%) | H (H shows the control value of more than 50%)
Cc1cn(-c2cc(F)ccc2Cl)c(-c2ccccc2)c(C)c1=O [Compound 416] | H (H shows the control value of more than 50%) | H (H shows the control value of more than 50%) | L (L shows the control value of 50% or less) | H (H shows the control value of more than 50%) | L (L shows the control value of 50% or less)
O=c1c(Br)cn(-c2cc(F)ccc2Cl)c(-c2ccccc2)c1Cl [Compound 417] | H (H shows the control value of more than 50%) | H (H shows the control value of more than 50%) | L (L shows the control value of 50% or less) | H (H shows the control value of more than 50%) | H (H shows the control value of more than 50%)
Cc1c(O)cccc1-n1cc(Br)c(=O)c(Br)c1-c1c(F)cc(F)cc1F [Compound 419] | H (H shows the control value of more than 50%) | H (H shows the control value of more than 50%) | L (L shows the control value of 50% or less) | H (H shows the control value of more than 50%) | H (H shows the control value of more than 50%)
Cc1c(-n2cc(Cl)c(=O)c(Cl)c2-c2c(F)cc(F)cc2F)cccc1[N+](=O)[O-] [Compound 420] | H (H shows the control value of more than 50%) | H (H shows the control value of more than 50%) | L (L shows the control value of 50% or less) | H (H shows the control value of more than 50%) | L (L shows the control value of 50% or less)
Cc1c(N)cccc1-n1cc(Cl)c(=O)c(Cl)c1-c1c(F)cc(F)cc1F [Compound 421] | H (H shows the control value of more than 50%) | H (H shows the control value of more than 50%) | L (L shows the control value of 50% or less) | L (L shows the control value of 50% or less) | L (L shows the control value of 50% or less)
CCOc1cccc(-n2cc(Br)c(=O)c(Br)c2-c2c(F)cc(F)cc2F)c1C [Compound 422] | H (H shows the control value of more than 50%) | H (H shows the control value of more than 50%) | H (H shows the control value of more than 50%) | H (H shows the control value of more than 50%) | H (H shows the control value of more than 50%)
CCCOc1cccc(-n2cc(Br)c(=O)c(Br)c2-c2c(F)cc(F)cc2F)c1C [Compound 423] | L (L shows the control value of 50% or less) | H (H shows the control value of more than 50%) | H (H shows the control value of more than 50%) | H (H shows the control value of more than 50%) | H (H shows the control value of more than 50%)
Cc1ccc(O)cc1-n1cc(Br)c(=O)c(Cl)c1-c1c(F)cccc1F [Compound 426] | H (H shows the control value of more than 50%) | H (H shows the control value of more than 50%) | L (L shows the control value of 50% or less) | L (L shows the control value of 50% or less) | L (L shows the control value of 50% or less)
C=CCOc1ccc(C)c(-n2cc(Br)c(=O)c(Cl)c2-c2c(F)cccc2F)c1 [Compound 430] | L (L shows the control value of 50% or less) | H (H shows the control value of more than 50%) | L (L shows the control value of 50% or less) | H (H shows the control value of more than 50%) | L (L shows the control value of 50% or less)
CCOCOc1ccc(C)c(-n2cc(Br)c(=O)c(Cl)c2-c2c(F)cccc2F)c1 [Compound 432] | H (H shows the control value of more than 50%) | H (H shows the control value of more than 50%) | H (H shows the control value of more than 50%) | H (H shows the control value of more than 50%) | L (L shows the control value of 50% or less)
CCOc1ccc(C)c(-n2cc(Br)c(=O)c(Cl)c2-c2c(F)cccc2F)c1 [Compound 433] | H (H shows the control value of more than 50%) | H (H shows the control value of more than 50%) | L (L shows the control value of 50% or less) | H (H shows the control value of more than 50%) | L (L shows the control value of 50% or less)
COc1ccc(C)c(-n2cc(C)c(=O)c(C)c2-c2ccccc2)c1 [Compound 435] | H (H shows the control value of more than 50%) | H (H shows the control value of more than 50%) | H (H shows the control value of more than 50%) | H (H shows the control value of more than 50%) | L (L shows the control value of 50% or less)
